# Out of some 72,000 compounds screened, about 710 (0.99%) were called active. The inconclusive results got no clear call from the source; some entries with a clear call stand among them for comparison. Calls come from the whole dose curve; as a rule, active = well fitted inhibition curve with a large enough effect; inconclusive = small, poorly fitted or top-dose-only effect; inactive = no such curve, though single readings can be large or run the other way. No potency is given beside an inconclusive call; the fits are too rough.
# Assay: qHTS Assay for Inhibitors of the ERK Signaling Pathway using a Homogeneous Screening Assay; note: nearly all actives have a fitted effect of over 55% in size
# Conditions: HEK293-V1b, vasopressin-stimulated pERK AlphaScreen; activity, negative = inhibition: at 57.5 µM (top of the series) unless noted
# Method in brief: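 HEK293 cells stably expressing V1b receptor, preincubated 30 min at 37 °C with compound, then stimulated 5 min with 25 nM vasopressin. Phospho-ERK by AlphaScreen SureFire after 5 h RT; normalized to DMSO and vasopressin; AC50 by Hill fit.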
# % is set by controls: 0 for no effect and ±100 for the full control effect; potency is the fitted concentration of half-maximal effect; tags give direction and shape of the fitted curve.
SMILES,Potency,"activity, negative = inhibition"
Cc1ccc(-c2nnc(Nc3ccccc3)o2)cc1,"inconclusive [inhibitor, partial curve]",
O=C(c1ccco1)N1CCCC(c2nc(-c3ccc(S(=O)(=O)NCc4ccccc4)cc3)no2)C1 (centres undefined),"inconclusive [inhibitor, single point]",
COc1cccc(Cn2c(=O)cnc3cnc(N4CCOCC4)nc32)c1,"inconclusive [inhibitor, full curve, poor fit]",
N#CC1=C2SCN(Cc3ccccc3)CN2C(=O)CC1c1ccccc1F (centres undefined),"inconclusive [inhibitor, full curve, poor fit]",
O=S(=O)(c1cccc2cccnc12)N1CCN(Cc2ccc3c(c2)OCO3)CC1,"inconclusive [inhibitor, single point]",
COc1ccc(Br)cc1C(=O)Nc1ccc(N2CCN(S(C)(=O)=O)CC2)cc1,"inconclusive [inhibitor, partial curve]",
Cc1cccc(N2CCN(C(=O)CCCOc3ccccc3)CC2)c1C,"inconclusive [inhibitor, partial curve]",
N#Cc1cc2c(nc1SCc1cccnc1)CCCCC2,"inconclusive [inhibitor, full curve, poor fit]",
O=C(Nc1cccc(Br)c1)c1cc2ccccc2o1,"inconclusive [inhibitor, single point]",
Cc1ccc2nc(-c3ccc(SCC(=O)O)nc3)[nH]c2c1,,inactive: 6.78%
C=CCNc1oc(-c2cccc3ccccc23)nc1C#N,"inconclusive [inhibitor, single point]",
CCCCn1nnc(NC(=O)c2sc3cc(Cl)ccc3c2Cl)n1,,inactive: -15.3%
COc1ccc(CCn2c(C)cc(C(=O)CSc3nnc(N)s3)c2C)cc1,active: 20 µM,
Cc1ccc2[nH]c(=O)c(CN(Cc3ccccc3)Cc3nnnn3C3CCCC3)cc2c1,,inactive: -14%
Cn1c(=O)c(-c2ccc(Cl)cc2)nc2cnc(N3CCNCC3)nc21,,inactive: 0.489%
Nc1ccc(S(N)(=O)=O)cc1,inactive,
CCC(=Nc1ccc(N)cc1)C1=C(O)C(C(=O)OC)C(C)(C)CC1=O (centres undefined),"inconclusive [inhibitor, single point]",
Cc1ccc2c(c1)c1c(n2CC(O)Cn2c(C)nc3ccccc32)/C(=N\O)CCC1 (centres undefined),,inactive: 15.4%
COc1ccc(C[C@@](C)(N)C(=O)O)cc1OC,,inactive: 1.11% [at 25.7 µM]
COC(=O)[C@@H]1C[C@H]1[C@@H](N)c1ccccc1,"inconclusive [inhibitor, partial curve]",
N#CCCn1c(=O)c(-c2ccccc2)nc2cnc(Oc3ccccc3)nc21,,inactive: -21.6%
C[C@H](CCC(=O)O)[C@H]1CC[C@@H]2[C@@H]3CC[C@H]4C[C@@H](O)CC[C@@]4(C)[C@@H]3C[C@H](O)[C@@]21C,,inactive: 4.31% [at 11.5 µM]
CN(C)c1oc(-c2ccccc2)nc1C#N,"inconclusive [inhibitor, full curve, poor fit]",

SMILES,Potency,"activity, negative = inhibition"
CCC(C(=O)NC1CCCC1)N(Cc1ccco1)C(=O)Cn1nnc(-c2ccc(C)cc2)n1 (centres undefined),"inconclusive [inhibitor, partial curve]",
Cc1cc(C)nc(NS(=O)(=O)c2ccc(NC(=O)CCCN3C(=O)c4ccccc4C3=O)cc2)n1,"inconclusive [inhibitor, single point]",
COc1ccc(OC)c(NC(=O)Cn2c(CCC(=O)O)ccc2-c2cccs2)c1,"inconclusive [inhibitor, full curve, poor fit]",
CCOc1cc(/C=N/O)cc(Br)c1OC,"inconclusive [inhibitor, partial curve]",
CN1CCN(c2ncc3nc(-c4cc(F)cc(F)c4)c(=O)n(C4CC4)c3n2)CC1,"inconclusive [inhibitor, full curve, poor fit]",
COc1ccc(S(=O)(=O)N(CCCN2CCCC2=O)Cc2cc3c(C)ccc(C)c3[nH]c2=O)cc1,"inconclusive [inhibitor, partial curve]",
O=C(c1cc2nc(-c3ccccc3)cc(C(F)(F)F)n2n1)N1CCOCC1,"inconclusive [inhibitor, partial curve, poor fit]",
CCN(C1CCCCC1)S(=O)(=O)c1ccc(S(=O)(=O)NCc2ccncc2)cc1,"inconclusive [inhibitor, full curve]",
COc1ccc(-c2nn(C)c(=O)c3ccccc23)cc1CNC(=O)c1ccco1,"inconclusive [inhibitor, single point]",
CN1CCN(c2nc(-c3ccoc3)nc3ccccc23)CC1,"inconclusive [inhibitor, partial curve]",
O=C(C1CCCN(S(=O)(=O)c2cccc3cccnc23)C1)N1CCN(c2ccccc2F)CC1 (centres undefined),"inconclusive [inhibitor, single point]",
CCOC(=O)c1sc(NC(=O)CSc2n[nH]c(-c3ccccc3)n2)c(C#N)c1C,"inconclusive [inhibitor, partial curve]",
N#Cc1c(-c2cccs2)cc(-c2ccccn2)nc1N,,inactive: -12.6%
COC(=O)c1ccccc1NC(=O)COC(=O)c1ccc(C)c(NC(=O)c2ccco2)c1,"inconclusive [inhibitor, partial curve]",
COC(=O)CSc1nc2sc(C)c(C)c2c(=O)n1C,"inconclusive [inhibitor, partial curve]",
Cc1nc2cnc(N(C)C)nc2n(CCC#N)c1=O,,inactive: -12.2%
Cc1cc(NC(=O)COC(=O)CSc2nc3cc(Cl)ccc3n2Cc2ccccc2)no1,"inconclusive [inhibitor, partial curve]",
C[C@H]1COC(=O)[C@H](Cc2ccccc2)NC(=O)[C@@H](C)COC(=O)[C@H](Cc2ccccc2)NC1=O,,inactive: 16.8% [at 11.5 µM]
C=CCn1c(-c2ccc(OC)cc2)nc2ccccc21,,inconclusive: -49.6% [inhibitor]
CC(C)OC(=O)NCCOC(=O)Nc1cccc(Cl)c1,"inconclusive [inhibitor, single point]",
C[C@@]12C[C@H](O)[C@@H]3[C@H](CCC4=CC(=O)CC[C@]43C)[C@H]1CC[C@@H]2c1csc(-c2ccccc2)n1,,inactive: -13.7% [at 11.5 µM]
CC1(O)C(=O)C=C2C=C3CCCN3C=C2C1=O (centres undefined),,inactive: 19.7% [at 11.5 µM]
CNS(=O)(=O)c1cccc(C(=O)OCc2cc(Cl)cc3c2OCOC3)c1,"inconclusive [inhibitor, partial curve]",

SMILES,Potency,"activity, negative = inhibition"
Cn1cccc1C(=O)N1CCC2(CCN(Cc3nccs3)CC2)CC1,,inactive: 26.1%
N#CC(C(=O)NCCc1ccccc1)c1nc2ccccc2nc1N1CCCCC1 (centres undefined),,inactive: 12.7%
COc1ccc(Cl)c(Cn2c(NCc3ccco3)nc3c2c(=O)n(C)c(=O)n3C)c1,"inconclusive [inhibitor, partial curve]",
Cc1c(C)c2cc(Cl)c(OCc3nn[nH]n3)cc2oc1=O,"inconclusive [inhibitor, partial curve]",
CC(=O)Oc1c2occc2cc2ccc(=O)oc12,,inactive: -15.6%
CCOCCCn1c(=N)c(C(N)=S)cc2c(=O)n3cccc(C)c3nc21,"inconclusive [inhibitor, single point]",
O=C(C1CC1)N1CCc2cc(Br)cc(S(=O)(=O)N3CCOCC3)c21,,inactive: -8.02%
O=S(=O)(Nc1nc2ccccc2s1)c1ccc(Br)s1,"inconclusive [inhibitor, single point]",
Cc1cccc(NC(=O)C2CCN(S(=O)(=O)c3c(C)nn(C)c3C)CC2)n1,"inconclusive [inhibitor, partial curve, poor fit]",
O=c1c(-c2cccc(Cl)c2)nc2cncnc2n1Cc1ccccc1Cl,"inconclusive [inhibitor, partial curve]",
CC(Cc1ccccc1)C(=O)NCCc1c[nH]c2ccccc12 (centres undefined),"inconclusive [inhibitor, single point]",
O=c1c(-c2cc(F)cc(F)c2)nc2cnc(N3CCNCC3)nc2n1Cc1ccc(F)cc1,"inconclusive [inhibitor, single point]",
O=C(CSc1ccc2c(c1)OCCO2)NCc1ccco1,,inactive: 8.65%
CC(C)CO/N=C1/C[C@@H](O)[C@@H](O)[C@@H]2[C@@H]3C(=O)N(C[C@@H]4CCCO4)C(=O)[C@H]3CC[C@H]12,,inactive: 14.4% [at 11.5 µM]
Cc1nn(Cc2ccc(C(=O)Nc3nccs3)cc2)c(C)c1Cl,"inconclusive [inhibitor, single point]",
C=CCn1c(CCNC(=O)c2ccccc2F)nnc1SCC(=O)Nc1nc(C)cs1,"inconclusive [inhibitor, single point]",
CC(C)N(CCC(=O)c1ccc2ccccc2c1)Cc1ccccc1,active: 31.6 µM,
CCOc1ccc(Nc2cc(C)nc(-n3nc(C)cc3C)n2)cc1,"inconclusive [inhibitor, single point]",
C=C(c1cccc2ccccc12)P(=O)(O)O,,inactive: -5.23%
CC(C)CN1CC[C@@]2(CCCN(C(=O)c3csnn3)C2)C1,,inactive: -2.98%
COc1ccc(Nc2nc(OC)nc(N3CCN(c4ccc(OC)cc4)CC3)n2)cc1,"inconclusive [inhibitor, partial curve, poor fit]",
Cc1ccccc1C(=O)Nc1ccc2c(c1)OCO2,,inactive: 7.76%
CN(Cc1ccco1)c1nc(-c2cccc(C#N)c2)nc2ccccc12,,inactive: 20.8%

# From PubChem BioAssay AID995 (National Center for Advancing Translational Sciences (NCATS), 2007)
